{
  "source": "PubChem BioAssay AID463173",
  "about": "(ICCB-Longwood Screening Facility, Harvard Medical School, 2010)",
  "note": "In all, about 52,000 compounds went through this assay and about 1,700 (3.3%) were called active. No stated cut-off is given here; in the data, active means survival mostly below about 52% (no sharp cut-off); inactive means mostly above about 56%. Some of the results follow.",
  "data": [
    {"tested_on": "Wild type", "assay": "growth inhibition of S. aureus wild type versus tarO mutant, primary screen, teichoic acid synthesis inhibitors, RN4220, OD600 (AID 463173)", "settings": "S. aureus RN4220 wild type/DeltatarO growth, OD600, 18 h, hits give low values, screened at 18.75 µg/mL (by protocol)", "values": [
      {"compound": "CCOC(=O)c1c(C)oc2nc(C)nc(NCC3CCN(Cc4cccc(Cl)c4)CC3)c12", "survival": "inactive: 83%"},
      {"compound": "CCOC(=O)C1CCCN(C(=O)Cn2nc(CC)n3c(cc4occc43)c2=O)C1", "note": "(centres undefined)", "survival": "inactive: 78%"},
      {"compound": "Cc1cccc(NC(=O)C2CCCN(c3nc4ccccc4s3)C2)c1C", "note": "(centres undefined)", "survival": "inactive: 88%"},
      {"compound": "Cc1ccc(C)c(N2CCN(CCCNC(=O)Nc3ccc(Cl)cc3)CC2)c1", "survival": "active: -6%"},
      {"compound": "COc1cccc2cc(-c3nc(-c4ccc(C)cc4)c(C)s3)c(=O)oc12", "survival": "inactive: 64%"},
      {"compound": "O=c1cc(CSc2nnc(Cn3nnc4ccccc43)o2)c2ccccc2[nH]1", "survival": "inactive: 108%"},
      {"compound": "Cc1ccc(C(=O)Nc2ccc3nc(N4CCCCC4)cc(C)c3c2)cc1F", "survival": "inactive: 65%"},
      {"compound": "Cc1ccc(NC(=O)CCNS(=O)(=O)c2ccc3c(c2)CCCC(=O)N3)cc1", "survival": "inactive: 73%"},
      {"compound": "Cc1ccc(CCNC(=O)c2ccc(CS(=O)(=O)Cc3ccccc3F)o2)cc1", "survival": "inactive: 71%"},
      {"compound": "CCOc1ccccc1NC(=O)CN1C=NS(=O)(=O)c2ccccc21", "survival": "inactive: 59%"},
      {"compound": "O=S(=O)(Nc1ccc(Cl)cc1)c1cccc(S(=O)(=O)c2ccc(Cl)c(Cl)c2)c1", "survival": "inactive: 34%"},
      {"compound": "Cc1cc(Nc2ccc(F)cc2)nc(-n2nc(C)cc2C)n1", "survival": "inactive: 81%"},
      {"compound": "CC(=O)c1ccc(N2C(=O)N(Cc3cc(C)ccc3C)c3ccccc3S2(=O)=O)cc1", "survival": "inactive: 87%"},
      {"compound": "O=C(CN1CCC(n2nnc3cc(C(F)(F)F)ccc32)CC1)Nc1ccc(N2CCCC2)cc1", "survival": "inactive: 95%"},
      {"compound": "COc1ccc(NC(=O)Cc2noc3ccc(C)cc23)cc1Cl", "survival": "inactive: 92%"},
      {"compound": "CC1=C(C(=O)Nc2cccc(C(F)(F)F)c2)C(c2ccccc2)n2ncnc2N1", "note": "(centres undefined)", "survival": "inactive: 101%"},
      {"compound": "CCc1cccc(C)c1NC(=O)CCn1nc(C)c2c(C)n(-c3ccccc3)nc2c1=O", "survival": "inactive: 69%"},
      {"compound": "COc1cccc(N2CC(NC(=O)C3CC3)CC2=O)c1", "note": "(centres undefined)", "survival": "inactive: 79%"},
      {"compound": "COc1ccc(NC(=O)Cn2c(=O)n(-c3ccc(C)c(C)c3)c(=O)c3c(C)c(C)sc32)cc1", "survival": "inactive: 144%"},
      {"compound": "CCOc1ccc2c(c1)c(=O)c(C(=O)c1ccc(CC)cc1)cn2CC(=O)Nc1ccccc1C", "survival": "inactive: 78%"},
      {"compound": "Cc1ccc(C)c(N2CCN(c3nc4c(S(=O)(=O)c5ccccc5)nnn4c4ccc(Cl)cc34)CC2)c1", "survival": "inactive: 97%"},
      {"compound": "COc1ccc(N2CCN(c3cc(C)nc4nncn34)CC2)cc1", "survival": "inactive: 93%"},
      {"compound": "CCOC(=O)/C(C#N)=N\\Nc1ccccc1OC", "survival": "inactive: 105%"},
      {"compound": "Cc1ccc(CCNC(=O)c2ccc(NC(=O)N3CCSc4ccccc43)cc2)cc1", "survival": "inactive: 75%"},
      {"compound": "Cc1ccc(NC(=O)Cn2nnc(C(=O)NCCc3ccccc3)c2N)cc1Cl", "survival": "inactive: 79%"},
      {"compound": "COCC(=O)N1c2nc(-c3ccco3)nn2C2(CCCCC2)[C@@H]2CCCC[C@@H]21", "survival": "inactive: 80%"},
      {"compound": "CCc1ccc2c(c1)c(=O)c(S(=O)(=O)c1ccccc1)cn2CC(=O)Nc1ccc(OC)cc1", "survival": "inactive: 83%"},
      {"compound": "CCOC(=O)c1c(S(=O)(=O)N2CCC(C(=O)Nc3cccc(C)n3)CC2)c(C)n(C)c1C", "survival": "inactive: 74%"},
      {"compound": "CCC(C)NC(=O)Cn1c(=O)ccc2cc(S(=O)(=O)N3CCCC3)ccc21", "note": "(centres undefined)", "survival": "inactive: 32%"},
      {"compound": "CCCN(C(=O)c1cc2c(=O)oc3ccccc3c2s1)c1ccccc1C", "survival": "inactive: 58%"},
      {"compound": "COc1ccc(NC(=O)CN2C(=O)C3(SCC(=O)N3c3cccc(OC)c3)c3ccccc32)cc1", "note": "(centres undefined)", "survival": "inactive: 72%"},
      {"compound": "O=C(CSc1nc2ccsc2c(=O)n1Cc1ccccc1Cl)NCc1ccc(Cl)cc1", "survival": "inactive: 75%"},
      {"compound": "O=C(CSc1nc2ccccc2n1Cc1c(F)cccc1Cl)N1CCN(c2ccc(F)cc2)CC1", "survival": "inactive: 78%"},
      {"compound": "CCOc1cc(CNC(=O)c2ccc3nc(CCc4ccccc4)oc3c2)ccc1OC", "survival": "inactive: 65%"},
      {"compound": "Cc1ccc(CNC(=O)C(C)n2ccc3cc(S(=O)(=O)N4CCCC4)ccc32)cc1", "note": "(centres undefined)", "survival": "inactive: 66%"},
      {"compound": "O=C(Nc1nnc(SCc2cc(=O)n3cc(Cl)ccc3n2)s1)c1cccc(F)c1", "survival": "inactive: 59%"},
      {"compound": "O=C(c1ccc2c(Cl)c3c(nc2c1)CCCC3)N1CCN(c2ccccc2F)CC1", "survival": "active: 0%"},
      {"compound": "Cc1ccc(N2C(=O)SC(Nc3ccccc3)C2=O)cc1", "note": "(centres undefined)", "survival": "inactive: 118%"},
      {"compound": "CCOc1ccc(N2CC(c3nc4ccccc4n3CCOc3ccc(CC)cc3)CC2=O)cc1", "note": "(centres undefined)", "survival": "inactive: 79%"},
      {"compound": "COc1ccc(N2CC(NC(=O)c3c(F)cccc3Cl)CC2=O)cc1OC", "note": "(centres undefined)", "survival": "inactive: 66%"},
      {"compound": "CCC(C(=O)N1CCN(c2ccccc2)CC1)n1nc(C)c2sc3ccccc3c2c1=O", "note": "(centres undefined)", "survival": "inactive: 75%"},
      {"compound": "Cc1ccccc1NC(=O)c1cnc2sc(N3CCCC3)nn2c1=O", "survival": "inactive: 66%"},
      {"compound": "COc1cccc(C2=CC(c3ccccc3F)n3c(nc4ccccc43)N2)c1", "note": "(centres undefined)", "survival": "inactive: 70%"},
      {"compound": "COc1ccc(Cn2c(=O)[nH]c3cc(C(=O)N4CCN(c5cc(Cl)ccc5C)CC4)ccc3c2=O)cc1", "survival": "inactive: 65%"},
      {"compound": "COC(=O)Cn1cnc2c(cnn2-c2ccc(OC)cc2)c1=O", "survival": "inactive: 108%"},
      {"compound": "COc1ccccc1-c1noc(-c2ccc(NC(C)C)c([N+](=O)[O-])c2)n1", "survival": "inactive: 126%"},
      {"compound": "COc1ccc(-c2nn(-c3cccc(F)c3)c3c2cnc2cc(OC)c(OC)cc23)cc1", "survival": "inactive: 93%"},
      {"compound": "COc1ccc2[nH]cc(S(=O)(=O)c3ccc(C)c(C)c3)c(=O)c2c1", "survival": "inactive: 87%"},
      {"compound": "O=C(CCCCn1c(=O)c2ccccc2n(CC(=O)Nc2cccc(F)c2)c1=O)NCCc1ccccc1", "survival": "inactive: 93%"},
      {"compound": "O=C(Cn1cc(I)c(=O)[nH]c1=O)N1CCOCC1", "survival": "inactive: 100%"},
      {"compound": "CCc1ccc(NC(=O)Cn2cc(S(=O)(=O)N3CCCC3)c(S(=O)(=O)N3CCCC3)c2)cc1", "survival": "inactive: 65%"},
      {"compound": "COc1ccc2oc(=O)c(-c3nc(-c4cccs4)no3)cc2c1", "survival": "inactive: 86%"},
      {"compound": "Cc1ccc(NC(=O)Cn2nnc(C(=O)NCc3ccc4c(c3)OCO4)c2N)cc1Cl", "survival": "inactive: 101%"},
      {"compound": "CC(C)NC(=O)CCN1C(=O)c2ccccc2Sc2ncccc21", "survival": "inactive: 90%"},
      {"compound": "O=C(NC1CC(=O)N(c2ccc(F)cc2)C1)C1CC1", "note": "(centres undefined)", "survival": "inactive: 85%"},
      {"compound": "Fc1ccc(-c2ccc(NCc3ccccc3)nn2)cc1", "survival": "inactive: 119%"},
      {"compound": "Cc1cc(C)cc(NC(=O)CCCc2nc(-c3ccccc3Cl)no2)c1", "survival": "inactive: 82%"},
      {"compound": "CSc1nc2sc3c(c2c(=O)n1-c1ccccc1)CCC(C(C)(C)C)C3", "note": "(centres undefined)", "survival": "active: 12%"},
      {"compound": "Cc1ccc(NC(=O)C(C)Sc2nnc(C)n2C)cc1", "note": "(centres undefined)", "survival": "inactive: 103%"},
      {"compound": "Cn1c(=O)n(CCCc2ccccc2)c(=O)c2c1nc1n2CCN1c1ccc(F)cc1", "survival": "inactive: 67%"},
      {"compound": "CCOC(=O)c1cc2c(=O)n3ccccc3nc2n(Cc2ccco2)c1=NC(=O)c1ccc(OCC)cc1", "survival": "inactive: 69%"},
      {"compound": "O=C(c1cc(-c2ccc(O)cc2)on1)N1CCN(c2ccccc2)CC1", "survival": "inactive: 51%"},
      {"compound": "CCn1c(=O)cc(OCC(=O)N2CCN(c3ccc(F)cc3)CC2)c2ccccc21", "survival": "inactive: 78%"},
      {"compound": "CCN(c1cccc(C)c1)c1ncnc2c1cnn2-c1cccc(Cl)c1", "survival": "inactive: 79%"},
      {"compound": "CCCCOC(=O)c1ccc(NC(=O)c2cnc3ccc(C)cn3c2=O)cc1", "survival": "inactive: 91%"},
      {"compound": "Cc1nn(C(=O)c2ccc(Br)cc2)c(C)c1Sc1ccccc1", "survival": "active: -4%"},
      {"compound": "COc1cc(OC)c(N(C)C(=O)c2sc3nc4n(c(=O)c3c2C)CCCC4)cc1Cl", "survival": "inactive: 78%"},
      {"compound": "CCOc1ccc(C/C(N)=N\\n2cnnc2)cc1", "survival": "inactive: 115%"},
      {"compound": "COc1ccc(CN2COc3ccc4c(-c5ccccc5)cc(=O)oc4c3C2)cc1OC", "survival": "inactive: 94%"},
      {"compound": "c1ccc2c3c(cc(N4CCOCC4)c2c1)OC1(N2CCOCC2)CCCCC1O3", "note": "(centres undefined)", "survival": "inactive: 115%"},
      {"compound": "Cc1ccc(NC(=O)Cn2c(=O)n(Cc3nc(-c4ccccc4)no3)c(=O)c3cc4c(cc32)OCO4)c(C)c1", "survival": "inactive: 83%"},
      {"compound": "Cc1nc(Nc2ccc(S(=O)(=O)N3CCCC3)cc2)c2nnn(Cc3ccccc3)c2n1", "survival": "inactive: 107%"},
      {"compound": "CCOc1ccc2[nH]c3nc(SCC4CCCO4)nnc3c2c1", "note": "(centres undefined)", "survival": "inactive: 114%"},
      {"compound": "O=C(NCc1ccccc1)c1cnc(N2CCCCC2)c2ccccc12", "survival": "inactive: 71%"},
      {"compound": "COc1ccc(CCNC(=O)CSc2n[nH]c(-c3ccccc3Cl)n2)cc1OC", "survival": "inactive: 73%"},
      {"compound": "COc1ccc(Cl)cc1NC(=O)CSC1=Nc2ccccc2C2=NC(CC(=O)NCc3cccs3)C(=O)N12", "note": "(centres undefined)", "survival": "inactive: 72%"},
      {"compound": "Cc1ccc(NC(=O)C2=CC(c3ccc4c(c3)OCO4)=NS(=O)(=O)N2C)cc1", "survival": "inactive: 90%"},
      {"compound": "CCc1ccc(-n2c(=O)c3cccnc3n2CC(=O)NCc2ccc(C)cc2)cc1", "survival": "inactive: 99%"},
      {"compound": "COc1cccc(Nc2nc3ccc(C)cc3nc2-n2nc(C)cc2C)c1", "survival": "inactive: 82%"},
      {"compound": "COc1ccc(Nc2c(-c3ccccn3)nc3ccc(Cl)cn23)cc1", "survival": "inactive: 96%"},
      {"compound": "CCc1cccc(Nc2ncnc3onc(-c4ccc(F)cc4)c23)c1", "survival": "inactive: 112%"},
      {"compound": "COC(=O)c1c(C)nn(-c2ccc(F)cc2)c1-n1cccc1", "survival": "inactive: 95%"},
      {"compound": "Cc1ccc(C(c2sc3nc(-c4ccco4)nn3c2O)N2CCC3(CC2)OCCO3)cc1", "note": "(centres undefined)", "survival": "inactive: 70%"},
      {"compound": "Cc1ccc(NC(=O)CSc2nc(-c3ccccc3Cl)nc3cc(=O)[nH]n23)c(C)c1", "survival": "inactive: 88%"},
      {"compound": "COc1cccc(N2CCN(S(=O)(=O)c3ccc(-c4ccno4)cc3OC)CC2)c1", "survival": "inactive: 57%"},
      {"compound": "O=C(Nc1ccccc1O)c1csc2c1CCCC2", "survival": "inactive: 114%"},
      {"compound": "O=C(CSc1cn(CC(=O)N2CCCCC2)c2ccccc12)Nc1ccc(C(F)(F)F)cc1", "survival": "inactive: 99%"},
      {"compound": "COc1ccc(OC)c(C2NC(=O)NC(C)=C2C(=O)Nc2ccc(F)cc2)c1", "note": "(centres undefined)", "survival": "inactive: 81%"},
      {"compound": "CCOc1ccccc1C(=O)NC1CC2CCCC(C1)N2Cc1nnnn1Cc1ccco1", "note": "(centres undefined)", "survival": "inactive: 95%"}
    ]}
  ]
}
